Experimental data published in PubChem BioAssay AID1346428 (National Center for Advancing Translational Sciences (NCATS), 2018).
Values joined by “and” are separate entries in the source; they are usually repeats but may differ in a detail not shown here. Identical values can stand only once. The campaign covered roughly 48,000 compounds. About 1,200 (2.5%) were called active. Roughly 2% stayed inconclusive and do not appear here.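 The calls were made as follows: active = activation of at least 60% and not above a set upper limit (about 1 call in 100 departs from these limits); inconclusive = activation of 40% to 60%, or above that upper limit; inactive = activation under 40%.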 Some of the results follow.

Biological target: Probable G-protein coupled receptor 32 (Homo sapiens) (UniProt O75388)
Chain of UniProt O75388 (O75388 whole entry, looked up): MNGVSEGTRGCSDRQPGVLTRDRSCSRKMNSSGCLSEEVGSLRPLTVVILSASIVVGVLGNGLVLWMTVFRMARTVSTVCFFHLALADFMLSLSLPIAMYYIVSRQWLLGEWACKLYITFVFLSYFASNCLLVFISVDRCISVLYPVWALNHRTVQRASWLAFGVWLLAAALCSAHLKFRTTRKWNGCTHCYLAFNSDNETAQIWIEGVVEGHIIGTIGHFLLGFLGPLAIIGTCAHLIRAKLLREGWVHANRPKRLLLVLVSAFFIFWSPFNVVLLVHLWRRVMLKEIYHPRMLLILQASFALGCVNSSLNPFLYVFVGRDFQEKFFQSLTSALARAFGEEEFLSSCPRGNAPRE
Test: qHTS for Agonists of Human Resolvin D1 Receptor DRV1; also: 0% is about no effect
Details: CHO-K1 GPR32 beta-arrestin PathHunter luminescence, 90 min; at 76.9 µM; active compounds read high; zero percent set by DMSO-only wells
In short: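 CHO-K1 cells stably expressing ProLink-tagged GPR32 and Enzyme Activator-tagged beta-arrestin were seeded at 2,500 cells/well overnight, exposed to compounds for 90 min at 37 °C, then read by beta-Gal complementation chemiluminescence after 1 h detection reagent.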

activation, inactive:
COc1cc(OC)c(OC)cc1CNCCSc1nnnn1-c1ccccc1 3.65%
Cn1c(CNC(=O)CSc2n[nH]c(-c3ccccc3Cl)n2)nc2ccccc21 0.833%
Cc1cccc(N(C)C(=O)CN2C(=O)COc3ccc(S(=O)(=O)N4CCCCCC4)cc32)c1 -37%
CCOc1ccccc1NC(=O)CCS(=O)(=O)c1cccc2nsnc12 -5.68%
Cc1c2cnn(CC(=O)N3CCN(c4ccccc4)CC3)c(=O)c2c(C)n1Cc1ccc(F)cc1 -3.34%
Cc1ccc(C)c(Cn2c(C(C)NC(=O)c3ccc(F)cc3)nc3ccccc32)c1 (stereo not drawn) -14.8%
CCN(c1ccccc1)S(=O)(=O)c1cc(-c2onc(C)c2C)ccc1OC -24.9%
O=C1CC(c2ccccc2)Cc2[nH]c(=O)c(C(=O)Nc3ccc(OC(F)(F)F)cc3)cc21 (stereo not drawn) 8.74%
Cc1cccc(N2CCN(C(=O)C3CCCN(S(=O)(=O)c4cccc5nsnc45)C3)CC2)c1C (stereo not drawn) -0.0496%
COc1cccc(N2C(=O)C(CC(=O)Nc3ccc(Cl)cc3)N(Cc3ccc4c(c3)OCO4)C2=O)c1 (stereo not drawn) -1.23%
COc1ccc(N2CCN(C(=O)c3c(C)oc4ncnc(N5CCCCC5)c34)CC2)cc1 -23.7%
CCOCCCNC(=O)C(c1ccccc1)N(Cc1cccs1)C(=O)c1ccc(NC(C)=O)cc1 (stereo not drawn) 4.1%
CCn1c(=O)c2sccc2n2c(CCCC(=O)N3CCN(c4ccc(OC)cc4)CC3)nnc12 3.43%
CC(=O)Nc1ccc(/C=N/NC(N)=S)cc1 -22.4%
COCCn1c(CCC(=O)Nc2cc(C)ccc2C)nc2cccnc21 -6.1%
Cc1cccc(-c2noc(CCCC(=O)NCc3ccco3)n2)c1 2.53%
O=C(O)Cc1ccc(OCCNC[C@H](O)c2ccccc2)cc1 -54.4%
Cc1ccc(Nc2ncnc3c2cnn3-c2ccccc2)c(C)c1 20.5%
CC(C(=O)O)c1cccc(C(=O)c2ccccc2)c1 (stereo not drawn) 13% and 2.74%
CCOc1ccc(S(=O)(=O)N2CCN(c3cc(Cl)ccc3Cl)CC2)c2ccccc12 -0.36%
O=c1[nH]c2ccc(NCc3ccc(-c4cccc(Cl)c4)o3)cc2[nH]1 8.55%
CCOc1ccccc1CNC(=O)C1CCN(S(=O)(=O)c2cccc3nonc23)CC1 1.59%
Cn1c(=O)c2c(SCC(=O)N3CCc4ccccc43)nc(-c3cccc(F)c3)nc2n(C)c1=O -6.22%
